{"source": "the supplement of paper PMC8728848", "binders": {"B1": {"name": "Epa15 (Candida glabrata) (protein)", "chain": "MGSSHHHHHHSSGLVPRGSHMASDPTTFPLGCSPEFTKTKKGLSMELYRYDYLPPGSYPCWDSAYLNPSYPRTGYKAKKLIATVDGVSGDINFKFNPKFGCKAIPDYLPSNFNYHEPITITNFTMILYGYFMPKTTAFHTFYVTADDLLFMNFGAGNAFDCCRREETADKFGNYAAYSVWGKKSLKNELTVYLHTGVYYPIRLFYNNRDYIAQLDIRFKTEHSNAIITNFTDYFYSVDDSSLGCPGLI"}}, "experiment_in_all_cases": "glycan array binding signal (z-score within array); higher = stronger binding", "conditions_in_all_cases": "glycan notation: IUPAC condensed, linker removed", "key": {"[1]": {"biological_target": "Gal(b1-3)[Neu5Ac(a2-6)]GlcNAc", "how_it_was_run": "(§1)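 Glycan array data came from 3228 arrays in the Consortium for Functional Glycomics database, and only arrays with an available protein sequence were kept. Glycan names were put into IUPAC-condensed notation, and columns mapping to the same glycan were averaged. The binding signal is a within-array Z-score, averaged across arrays of one protein sequence run at different concentrations or buffers and across linkers. A negative Z-score can be read as non-binding.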"}, "[2]": {"biological_target": "Gal(b1-3)[Neu5Ac(a2-6)]GlcNAc(a1-4)Gal(b1-4)Glc", "how_it_was_run": "as §1"}, "[3]": {"biological_target": "Gal(b1-3)[Neu5Ac(a2-6)]GlcNAc(b1-4)Gal(b1-4)Glc", "how_it_was_run": "as §1"}, "[4]": {"biological_target": "Gal(b1-3)[Neu5Ac(b2-6)]GalNAc", "how_it_was_run": "as §1"}, "[5]": {"biological_target": "Gal(b1-3)[Neu5Ac(b2-6)]GlcNAc", "how_it_was_run": "as §1"}, "Gal(b1-4)Gal": {"biological_target": "Gal(b1-4)Gal", "how_it_was_run": "as §1"}, "[6]": {"biological_target": "Gal(b1-4)GalNAc(a1-3)[Fuc(a1-2)]Gal(b1-4)GlcNAc", "how_it_was_run": "as §1"}, "[7]": {"biological_target": "Gal(b1-4)GalNAc(b1-3)[Fuc(a1-2)]Gal(b1-4)GlcNAc", "how_it_was_run": "as §1"}, "Gal(b1-4)Glc": {"biological_target": "Gal(b1-4)Glc", "how_it_was_run": "as §1"}, "Gal(b1-4)Glc6S": {"biological_target": "Gal(b1-4)Glc6S", "how_it_was_run": "as §1"}, "Gal(b1-4)GlcNAc": {"biological_target": "Gal(b1-4)GlcNAc", "how_it_was_run": "as §1"}, "[8]": {"biological_target": "Gal(b1-4)GlcNAc(a1-6)Gal(b1-4)GlcNAc", "how_it_was_run": "as §1"}, "Gal(b1-4)GlcNAc(b1-2)Man": {"biological_target": "Gal(b1-4)GlcNAc(b1-2)Man", "how_it_was_run": "as §1"}, "[9]": {"biological_target": "Gal(b1-4)GlcNAc(b1-2)Man(a1-3)Man(b1-4)GlcNAc(b1-4)GlcNAc", "how_it_was_run": "as §1"}, "[10]": {"biological_target": "Gal(b1-4)GlcNAc(b1-2)Man(a1-3)[Gal(b1-4)GlcNAc(b1-2)Man(a1-6)]Man(b1-4)GlcNAc(b1-4)GlcNAc", "how_it_was_run": "as §1"}, "[11]": {"biological_target": "Gal(b1-4)GlcNAc(b1-2)Man(a1-3)[Gal(b1-4)GlcNAc(b1-2)Man(a1-6)]Man(b1-4)GlcNAc(b1-4)[Fuc(a1-6)]GlcNAc", "how_it_was_run": "as §1"}, "[12]": {"biological_target": "Gal(b1-4)GlcNAc(b1-2)Man(a1-3)[Gal(b1-4)GlcNAc(b1-2)Man(a1-6)][Gal(b1-4)GlcNAc(b1-4)]Man(b1-4)GlcNAc(b1-4)[Fuc(a1-6)]GlcNAc", "how_it_was_run": "as §1"}, "[13]": {"biological_target": "Gal(b1-4)GlcNAc(b1-2)Man(a1-3)[Gal(b1-4)GlcNAc(b1-2)Man(a1-6)][GlcNAc(b1-4)]Man(b1-4)GlcNAc(b1-4)[Fuc(a1-6)]GlcNAc", "how_it_was_run": "as §1"}, "[14]": {"biological_target": "Gal(b1-4)GlcNAc(b1-2)Man(a1-3)[GlcNAc(b1-2)Man(a1-6)]Man(b1-4)GlcNAc(b1-4)GlcNAc", "how_it_was_run": "as §1"}, "[15]": {"biological_target": "Gal(b1-4)GlcNAc(b1-2)Man(a1-3)[GlcNAc(b1-4)][Gal(b1-4)GlcNAc(b1-2)Man(a1-6)]Man(b1-4)GlcNAc(b1-4)GlcNAc", "how_it_was_run": "as §1"}, "[16]": {"biological_target": "Gal(b1-4)GlcNAc(b1-2)Man(a1-3)[Man(a1-6)]Man(b1-4)GlcNAc(b1-4)GlcNAc", "how_it_was_run": "as §1"}, "[17]": {"biological_target": "Gal(b1-4)GlcNAc(b1-2)Man(a1-6)Man(b1-4)GlcNAc(b1-4)GlcNAc", "how_it_was_run": "as §1"}, "[18]": {"biological_target": "Gal(b1-4)GlcNAc(b1-2)Man(a1-6)[GlcNAc(b1-2)Man(a1-3)]Man(b1-4)GlcNAc(b1-4)GlcNAc", "how_it_was_run": "as §1"}, "[19]": {"biological_target": "Gal(b1-4)GlcNAc(b1-2)Man(a1-6)[Man(a1-3)]Man(b1-4)GlcNAc(b1-4)GlcNAc", "how_it_was_run": "as §1"}, "[20]": {"biological_target": "Gal(b1-4)GlcNAc(b1-2)[Gal(b1-4)GlcNAc(b1-4)]Man(a1-3)[Gal(b1-4)GlcNAc(b1-2)Man(a1-6)]Man(b1-4)GlcNAc(b1-4)GlcNAc", "how_it_was_run": "as §1"}, "[21]": {"biological_target": "Gal(b1-4)GlcNAc(b1-2)[Gal(b1-4)GlcNAc(b1-4)]Man(a1-3)[Gal(b1-4)GlcNAc(b1-2)[Gal(b1-4)GlcNAc(b1-6)]Man(a1-6)]Man(b1-4)GlcNAc(b1-4)GlcNAc", "how_it_was_run": "as §1"}, "[22]": {"biological_target": "Gal(b1-4)GlcNAc(b1-2)[Gal(b1-4)GlcNAc(b1-4)]Man(a1-3)[GlcNAc(b1-4)][Gal(b1-4)GlcNAc(b1-2)Man(a1-6)]Man(b1-4)GlcNAc(b1-4)GlcNAc", "how_it_was_run": "as §1"}, "[23]": {"biological_target": "Gal(b1-4)GlcNAc(b1-2)[Gal(b1-4)GlcNAc(b1-4)]Man(a1-3)[GlcNAc(b1-4)][Gal(b1-4)GlcNAc(b1-2)[Gal(b1-4)GlcNAc(b1-6)]Man(a1-6)]Man(b1-4)GlcNAc(b1-4)GlcNAc", "how_it_was_run": "as §1"}, "[24]": {"biological_target": "Gal(b1-4)GlcNAc(b1-2)[Gal(b1-4)GlcNAc(b1-6)]Man(a1-6)[Gal(b1-4)GlcNAc(b1-2)Man(a1-3)]Man(b1-4)GlcNAc(b1-4)GlcNAc", "how_it_was_run": "as §1"}, "[25]": {"biological_target": "Gal(b1-4)GlcNAc(b1-2)[Gal(b1-4)GlcNAc(b1-6)]Man(a1-6)[Gal(b1-4)GlcNAc(b1-2)Man(a1-3)]Man(b1-4)GlcNAc(b1-4)[Fuc(a1-6)]GlcNAc", "how_it_was_run": "as §1"}, "[26]": {"biological_target": "Gal(b1-4)GlcNAc(b1-2)[Gal(b1-4)GlcNAc(b1-6)]Man(a1-6)[GlcNAc(b1-4)][Gal(b1-4)GlcNAc(b1-2)Man(a1-3)]Man(b1-4)GlcNAc(b1-4)GlcNAc", "how_it_was_run": "as §1"}, "[27]": {"biological_target": "Gal(b1-4)GlcNAc(b1-2)[Gal(b1-4)GlcNAc(b1-6)]Man(a1-6)[GlcNAc(b1-4)][Gal(b1-4)GlcNAc(b1-2)[Gal(b1-4)GlcNAc(b1-4)]Man(a1-3)]Man(b1-4)GlcNAc(b1-4)[Fuc(a1-6)]GlcNAc", "how_it_was_run": "as §1"}, "[28]": {"biological_target": "Gal(b1-4)GlcNAc(b1-3)Gal(b1-3)GalNAc", "how_it_was_run": "as §1"}, "[29]": {"biological_target": "Gal(b1-4)GlcNAc(b1-3)Gal(b1-3)GlcNAc", "how_it_was_run": "as §1"}, "[30]": {"biological_target": "Gal(b1-4)GlcNAc(b1-3)Gal(b1-4)Glc", "how_it_was_run": "as §1"}, "[31]": {"biological_target": "Gal(b1-4)GlcNAc(b1-3)Gal(b1-4)GlcNAc", "how_it_was_run": "as §1"}, "[32]": {"biological_target": "Gal(b1-4)GlcNAc(b1-3)Gal(b1-4)GlcNAc(b1-2)Man(a1-3)[Gal(b1-4)GlcNAc(b1-3)Gal(b1-4)GlcNAc(b1-2)Man(a1-6)]Man(b1-4)GlcNAc(b1-4)GlcNAc", "how_it_was_run": "as §1"}}, "note": "Some of the results follow."}
{"binder": "B1", "values": [{"measurement": "glycan array binding signal (z-score)", "setting": "[1]", "value": 2.5}, {"measurement": "glycan array binding signal (z-score)", "setting": "[2]", "value": -0.269}, {"measurement": "glycan array binding signal (z-score)", "setting": "[3]", "value": 0.174}, {"measurement": "glycan array binding signal (z-score)", "setting": "[4]", "value": 0.796}, {"measurement": "glycan array binding signal (z-score)", "setting": "[5]", "value": -0.19}, {"measurement": "glycan array binding signal (z-score)", "setting": "Gal(b1-4)Gal", "value": -0.308}, {"measurement": "glycan array binding signal (z-score)", "setting": "[6]", "value": -0.276}, {"measurement": "glycan array binding signal (z-score)", "setting": "[7]", "value": 0.387}, {"measurement": "glycan array binding signal (z-score)", "setting": "Gal(b1-4)Glc", "value": -0.25}, {"measurement": "glycan array binding signal (z-score)", "setting": "Gal(b1-4)Glc6S", "value": 0.486}, {"measurement": "glycan array binding signal (z-score)", "setting": "Gal(b1-4)GlcNAc", "value": -0.049}, {"measurement": "glycan array binding signal (z-score)", "setting": "[8]", "value": 0.324}, {"measurement": "glycan array binding signal (z-score)", "setting": "Gal(b1-4)GlcNAc(b1-2)Man", "value": -0.235}, {"measurement": "glycan array binding signal (z-score)", "setting": "[9]", "value": 0.064}, {"measurement": "glycan array binding signal (z-score)", "setting": "[10]", "value": 1.75}, {"measurement": "glycan array binding signal (z-score)", "setting": "[11]", "value": -0.257}, {"measurement": "glycan array binding signal (z-score)", "setting": "[12]", "value": 0.437}, {"measurement": "glycan array binding signal (z-score)", "setting": "[13]", "value": 0.366}, {"measurement": "glycan array binding signal (z-score)", "setting": "[14]", "value": -0.432}, {"measurement": "glycan array binding signal (z-score)", "setting": "[15]", "value": 0.065}, {"measurement": "glycan array binding signal (z-score)", "setting": "[16]", "value": -0.258}, {"measurement": "glycan array binding signal (z-score)", "setting": "[17]", "value": -0.03}, {"measurement": "glycan array binding signal (z-score)", "setting": "[18]", "value": 0.059}, {"measurement": "glycan array binding signal (z-score)", "setting": "[19]", "value": 0.707}, {"measurement": "glycan array binding signal (z-score)", "setting": "[20]", "value": 0.566}, {"measurement": "glycan array binding signal (z-score)", "setting": "[21]", "value": -0.038}, {"measurement": "glycan array binding signal (z-score)", "setting": "[22]", "value": 1.09}, {"measurement": "glycan array binding signal (z-score)", "setting": "[23]", "value": 0.66}, {"measurement": "glycan array binding signal (z-score)", "setting": "[24]", "value": 1.03}, {"measurement": "glycan array binding signal (z-score)", "setting": "[25]", "value": 0.393}, {"measurement": "glycan array binding signal (z-score)", "setting": "[26]", "value": -0.041}, {"measurement": "glycan array binding signal (z-score)", "setting": "[27]", "value": -0.311}, {"measurement": "glycan array binding signal (z-score)", "setting": "[28]", "value": 0.68}, {"measurement": "glycan array binding signal (z-score)", "setting": "[29]", "value": -0.222}, {"measurement": "glycan array binding signal (z-score)", "setting": "[30]", "value": -0.063}, {"measurement": "glycan array binding signal (z-score)", "setting": "[31]", "value": 0.46}, {"measurement": "glycan array binding signal (z-score)", "setting": "[32]", "value": 0.585}]}
